MIC of invasive clinical C. tropicalis isolates, CLSI broth microdilution (fluconazole 0.12-256 mg/L, up to 1,024 for the azole-resistant cluster and its neighbour group; other ranges not stated); higher = less susceptible. Call: susceptible or wild type [S] / resistant or non-wild type [R] by CLSI breakpoints or cut-offs; intermediate and dose-dependent carry no call. '<=' and '>=' at the end values are inferred; the source marks only some of them. Isolates are numbered anew.
compound: CCCCCOc1ccc(-c2ccc(-c3ccc(C(=O)N[C@H]4C[C@@H](O)[C@@H](O)NC(=O)[C@@H]5[C@@H](O)[C@@H](C)CN5C(=O)[C@H]([C@@H](C)O)NC(=O)[C@H]([C@H](O)[C@@H](O)c5ccc(O)cc5)NC(=O)[C@@H]5C[C@@H](O)CN5C(=O)[C@H]([C@@H](C)O)NC4=O)cc3)cc2)cc1 [anidulafungin]; assay: CLSI broth microdilution.

| Test System | MIC |
| --- | --- |
| Candida tropicalis isolate 189 (ERG11 copies: 2, Erg11p: no key change) | 0.12 mg/L [S] |
| Candida tropicalis isolate 76 (ERG11 copies: 8, Erg11p: Y132F, S154F (heterozygous)) | 0.12 mg/L [S] |
| Candida tropicalis isolate 440 (ERG11 copies: 5, Erg11p: Y132F, S154F (heterozygous)) | 0.12 mg/L [S] |
| Candida tropicalis isolate 405 (ERG11 copies: 2, Erg11p: Y132F, S154F (homozygous)) | 0.03 mg/L [S] |
| Candida tropicalis isolate 378 (ERG11 copies: 8, Erg11p: Y132F, S154F (heterozygous)) | 0.12 mg/L [S] |
| Candida tropicalis isolate 427 (ERG11 copies: 2, Erg11p: no key change) | 0.12 mg/L [S] |
| Candida tropicalis isolate 205 (ERG11 copies: 6, Erg11p: Y132F, S154F (heterozygous)) | 0.06 mg/L [S] |
| Candida tropicalis isolate 352 (ERG11 copies: 2, Erg11p: no key change) | 0.03 mg/L [S] |
| Candida tropicalis isolate 374 (ERG11 copies: 2, Erg11p: no key change) | 0.25 mg/L [S] |

compound: C[C@@H]1[C@H](O)[C@@H](C)/C=C/C=C/C=C/C=C/C=C/C=C/C=C/[C@H](O[C@@H]2O[C@H](C)[C@@H](O)[C@H](N)[C@@H]2O)C[C@@H]2O[C@](O)(C[C@@H](O)C[C@@H](O)[C@H](O)CC[C@@H](O)C[C@@H](O)CC(=O)O[C@H]1C)C[C@H](O)[C@H]2C(=O)O [amphotericin B]; assay: CLSI broth microdilution.

| Test System | MIC |
| --- | --- |
| Candida tropicalis isolate 149 (ERG11 copies: 8, Erg11p: Y132F, S154F (heterozygous)) | 0.5 mg/L [S] |
| Candida tropicalis isolate 187 (ERG11 copies: 2, Erg11p: no key change) | 0.5 mg/L [S] |
| Candida tropicalis isolate 436 (ERG11 copies: 2, Erg11p: no key change) | 1 mg/L [S] |
| Candida tropicalis isolate 50 (ERG11 copies: 2, Erg11p: no key change) | 1 mg/L [S] |
| Candida tropicalis isolate 148 (ERG11 copies: 2, Erg11p: no key change) | 1 mg/L [S] |
| Candida tropicalis isolate 298 (ERG11 copies: 2, Erg11p: no key change) | 1 mg/L [S] |
| Candida tropicalis isolate 346 (ERG11 copies: 9, Erg11p: Y132F, S154F (heterozygous)) | 1 mg/L [S] |
| Candida tropicalis isolate 78 (ERG11 copies: 8, Erg11p: Y132F, S154F (heterozygous)) | 1 mg/L [S] |
| Candida tropicalis isolate 221 (ERG11 copies: 2, Erg11p: no key change) | 0.5 mg/L [S] |
| Candida tropicalis isolate 341 (ERG11 copies: 2, Erg11p: Y132F, S154F (heterozygous)) | 1 mg/L [S] |
| Candida tropicalis isolate 37 (ERG11 copies: 2, Erg11p: no key change) | 1 mg/L [S] |
| Candida tropicalis isolate 95 (ERG11 copies: 2, Erg11p: no key change) | 1 mg/L [S] |
| Candida tropicalis isolate 45 (ERG11 copies: 2, Erg11p: no key change) | 0.5 mg/L [S] |
| Candida tropicalis isolate 404 (ERG11 copies: 2, Erg11p: no key change) | 1 mg/L [S] |
| Candida tropicalis isolate 44 (ERG11 copies: 2, Erg11p: no key change) | 0.5 mg/L [S] |
| Candida tropicalis isolate 286 (ERG11 copies: 2, Erg11p: no key change) | 1 mg/L [S] |

| Test System | MIC |
| --- | --- |
| Candida tropicalis isolate 30 (ERG11 copies: 2, Erg11p: no key change) | 1 mg/L [S] |
| Candida tropicalis isolate 285 (ERG11 copies: 2, Erg11p: no key change) | 0.5 mg/L [S] |
| Candida tropicalis isolate 28 (ERG11 copies: 2, Erg11p: no key change) | 0.5 mg/L [S] |
| Candida tropicalis isolate 334 (ERG11 copies: 2, Erg11p: no key change) | 0.5 mg/L [S] |
| Candida tropicalis isolate 121 (ERG11 copies: 2, Erg11p: no key change) | 1 mg/L [S] |
| Candida tropicalis isolate 287 (ERG11 copies: 2, Erg11p: no key change) | 1 mg/L [S] |
| Candida tropicalis isolate 20 (ERG11 copies: 8, Erg11p: Y132F, S154F (heterozygous)) | 1 mg/L [S] |
| Candida tropicalis isolate 65 (ERG11 copies: 2, Erg11p: no key change) | 0.5 mg/L [S] |
| Candida tropicalis isolate 282 (ERG11 copies: 2, Erg11p: no key change) | 1 mg/L [S] |
| Candida tropicalis isolate 183 (ERG11 copies: 2, Erg11p: no key change) | 1 mg/L [S] |
| Candida tropicalis isolate 353 (ERG11 copies: 2, Erg11p: no key change) | 1 mg/L [S] |
| Candida tropicalis isolate 189 (ERG11 copies: 2, Erg11p: no key change) | 0.5 mg/L [S] |
| Candida tropicalis isolate 76 (ERG11 copies: 8, Erg11p: Y132F, S154F (heterozygous)) | 0.5 mg/L [S] |
| Candida tropicalis isolate 440 (ERG11 copies: 5, Erg11p: Y132F, S154F (heterozygous)) | 1 mg/L [S] |
| Candida tropicalis isolate 405 (ERG11 copies: 2, Erg11p: Y132F, S154F (homozygous)) | 0.25 mg/L [S] |

Reference: the supplement of paper PMC10724272
